Assay results reported in paper PMC9911399, “Two distinct binding modes provide the RNA-binding protein RbFox with extraordinary sequence specificity”.
Numbering of substitutions follows the chain as printed; changes in the protein carry UniProt numbers. The list shows a part of the results.

T1: RBFOX1 RRM RbFoxmut (Fox-RRM*) (Homo sapiens, UniProt Q9NWB1 109-208, R118D;E147R;N151S;E152T)
T1 sequence: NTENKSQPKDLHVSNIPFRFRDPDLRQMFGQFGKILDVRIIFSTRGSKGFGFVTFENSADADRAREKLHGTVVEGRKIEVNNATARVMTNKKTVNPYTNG

B1: UUAGCGG (DNA:RNA)
RNA: GGGAGACCGGAAUUCAGAUUGUCCUUAGCGGUUAAAUCCCGUCGUAGCCACCA
DNA 1: CAATCTGAATTCCGGTCTCCC
DNA 2: TGGTGGCTACGACGGGATT
B2: AGGUUUA (DNA:RNA)
RNA: GGGAGACCGGAAUUCAGAUUGUCCAGGUUUAUUAAAUCCCGUCGUAGCCACCA
DNA 1: CAATCTGAATTCCGGTCTCCC
DNA 2: TGGTGGCTACGACGGGATT
B3: GCCUCUU (DNA:RNA)
RNA: B2 RNA with A25G, G26C, G27C, U29C, A31U
DNA 1: CAATCTGAATTCCGGTCTCCC
DNA 2: TGGTGGCTACGACGGGATT
B4: UAAAACA (DNA:RNA)
RNA: B1 RNA with U26A, G28A, C29A, G30C, G31A
DNA 1: CAATCTGAATTCCGGTCTCCC
DNA 2: TGGTGGCTACGACGGGATT
B5: UGAAUUC (DNA:RNA)
RNA: B2 RNA with A25U, G27A, U28A, A31C
DNA 1: CAATCTGAATTCCGGTCTCCC
DNA 2: TGGTGGCTACGACGGGATT
B6: CACUGCC (DNA:RNA)
RNA: B2 RNA with A25C, G26A, G27C, U29G, U30C, A31C
DNA 1: CAATCTGAATTCCGGTCTCCC
DNA 2: TGGTGGCTACGACGGGATT
B7: CGCGUAC (DNA:RNA)
RNA: B2 RNA with A25C, G27C, U28G, U30A, A31C
DNA 1: CAATCTGAATTCCGGTCTCCC
DNA 2: TGGTGGCTACGACGGGATT
B8: GUCAUUU (DNA:RNA)
RNA: B2 RNA with A25G, G26U, G27C, U28A, A31U
DNA 1: CAATCTGAATTCCGGTCTCCC
DNA 2: TGGTGGCTACGACGGGATT
B9: CAUACUA (DNA:RNA)
RNA: B2 RNA with A25C, G26A, G27U, U28A, U29C
DNA 1: CAATCTGAATTCCGGTCTCCC
DNA 2: TGGTGGCTACGACGGGATT
B10: UGCAUAG (DNA:RNA)
RNA: B2 RNA with A25U, G27C, U28A, U30A, A31G
DNA 1: CAATCTGAATTCCGGTCTCCC
DNA 2: TGGTGGCTACGACGGGATT
B11: UUGGGAG (DNA:RNA)
RNA: B1 RNA with A27G, C29G, G30A
DNA 1: CAATCTGAATTCCGGTCTCCC
DNA 2: TGGTGGCTACGACGGGATT
B12: AAUAUAC (DNA:RNA)
RNA: B2 RNA with G26A, G27U, U28A, U30A, A31C
DNA 1: CAATCTGAATTCCGGTCTCCC
DNA 2: TGGTGGCTACGACGGGATT
B13: CCCCUAU (DNA:RNA)
RNA: B2 RNA with A25C, G26C, G27C, U28C, U30A, A31U
DNA 1: CAATCTGAATTCCGGTCTCCC
DNA 2: TGGTGGCTACGACGGGATT
B14: GCACGUG (DNA:RNA)
RNA: B1 RNA with U25G, U26C, G28C, C29G, G30U
DNA 1: CAATCTGAATTCCGGTCTCCC
DNA 2: TGGTGGCTACGACGGGATT
B15: ACAGGCG (DNA:RNA)
RNA: B1 RNA with U25A, U26C, C29G, G30C
DNA 1: CAATCTGAATTCCGGTCTCCC
DNA 2: TGGTGGCTACGACGGGATT
B16: GCUUGAA (DNA:RNA)
RNA: B2 RNA with A25G, G26C, G27U, U29G, U30A
DNA 1: CAATCTGAATTCCGGTCTCCC
DNA 2: TGGTGGCTACGACGGGATT
B17: AUAAAAC (DNA:RNA)
RNA: B1 RNA with U25A, G28A, C29A, G30A, G31C
DNA 1: CAATCTGAATTCCGGTCTCCC
DNA 2: TGGTGGCTACGACGGGATT
B18: GUAAGGU (DNA:RNA)
RNA: B1 RNA with U25G, G28A, C29G, G31U
DNA 1: CAATCTGAATTCCGGTCTCCC
DNA 2: TGGTGGCTACGACGGGATT
B19: UAAACGU (DNA:RNA)
RNA: B1 RNA with U26A, G28A, G31U
DNA 1: CAATCTGAATTCCGGTCTCCC
DNA 2: TGGTGGCTACGACGGGATT
B20: GCUAAUG (DNA:RNA)
RNA: B2 RNA with A25G, G26C, G27U, U28A, U29A, A31G
DNA 1: CAATCTGAATTCCGGTCTCCC
DNA 2: TGGTGGCTACGACGGGATT

molecular target: T1, RBFOX1 RRM RbFoxmut (Fox-RRM*); assay: EMSA; HiTS-Eq, 1 nM pool, 10 min; buffer printed only for the single-RNA assays: 10 mM Tris pH 7.5, 150 mM NaCl, 3.4 mM EDTA, 0.001% NP-40, 30 C; conditions: tags: His6 N-terminal (pET28a); label: 5' 32P
In short: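 A pool of RNA with 7 randomized nucleotides, 5′-radiolabelled and with DNA-annealed flanks, was equilibrated at 1 nM for 10 min in 50 µL with purified RbFox RRM, wild type or mutant, across increasing protein concentrations. Free RNA was separated by 8% native PAGE, excised, reverse-transcribed, barcoded by PCR and sequenced. Relative association constants were obtained from read-count changes of each RNA species versus the control reaction and normalised to the cognate motif.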

Row | Binder | binding signal
1 | B1 | 0.0965 KA relative to UGCAUGU
2 | B2 | 0.106 KA relative to UGCAUGU
3 | B3 | 0.0659 KA relative to UGCAUGU
4 | B4 | 0.0707 KA relative to UGCAUGU
5 | B5 | 0.0595 KA relative to UGCAUGU
6 | B6 | 0.254 KA relative to UGCAUGU
7 | B7 | 0.103 KA relative to UGCAUGU
8 | B8 | 0.0885 KA relative to UGCAUGU
9 | B9 | 0.164 KA relative to UGCAUGU
10 | B10 | 0.146 KA relative to UGCAUGU
11 | B11 | 0.12 KA relative to UGCAUGU
12 | B12 | 0.0846 KA relative to UGCAUGU
13 | B13 | 0.0944 KA relative to UGCAUGU
14 | B14 | 0.324 KA relative to UGCAUGU
15 | B15 | 0.146 KA relative to UGCAUGU
16 | B16 | 0.167 KA relative to UGCAUGU
17 | B17 | 0.1 KA relative to UGCAUGU
18 | B18 | 0.0609 KA relative to UGCAUGU
19 | B19 | 0.0623 KA relative to UGCAUGU
20 | B20 | 0.131 KA relative to UGCAUGU
